{"source": "the supplement of paper PMC8728848", "assay_in_all_cases": "glycan array binding signal (z-score within array); higher = stronger binding", "details_in_all_cases": "glycan notation: IUPAC condensed, linker removed", "key": {"[1]": {"biological_target": "Gal3S(b1-3)[Fuc(a1-4)]GlcNAc", "method_in_brief": "(§1)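 Arrays were curated from the Consortium for Functional Glycomics database, 3228 in total, and kept only where the protein sequence was available. Binding is expressed as a within-array Z-score. This score was averaged across arrays of the same protein sequence at different concentrations or buffers and across linkers, and negative values can be read as non-binding.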"}, "[2]": {"biological_target": "Gal3S(b1-4)Glc", "method_in_brief": "as §1"}, "[3]": {"biological_target": "Gal3S(b1-4)Glc6S", "method_in_brief": "as §1"}, "[4]": {"biological_target": "Gal3S(b1-4)GlcNAc", "method_in_brief": "as §1"}, "[5]": {"biological_target": "Gal3S(b1-4)[Fuc(a1-3)]Glc6S", "method_in_brief": "as §1"}, "[6]": {"biological_target": "Gal3S(b1-4)[Fuc(a1-3)]GlcNAc", "method_in_brief": "as §1"}, "[7]": {"biological_target": "Gal3S(b1-4)[Fuc(a1-3)]GlcNAc6S", "method_in_brief": "as §1"}, "[8]": {"biological_target": "Gal3S4S(b1-4)GlcNAc", "method_in_brief": "as §1"}, "[9]": {"biological_target": "Gal3S6S(b1-4)GlcNAc", "method_in_brief": "as §1"}, "[10]": {"biological_target": "Gal3S6S(b1-4)GlcNAc6S", "method_in_brief": "as §1"}, "[11]": {"biological_target": "Gal4S(b1-4)GlcNAc", "method_in_brief": "as §1"}, "[12]": {"biological_target": "Gal4S6S(b1-4)GlcNAc", "method_in_brief": "as §1"}, "[13]": {"biological_target": "Gal6P(b1-4)GlcNAc", "method_in_brief": "as §1"}, "[14]": {"biological_target": "Gal6S(b1-3)GlcNAc", "method_in_brief": "as §1"}, "[15]": {"biological_target": "Gal6S(b1-3)GlcNAc6S", "method_in_brief": "as §1"}, "[16]": {"biological_target": "Gal6S(b1-4)Glc", "method_in_brief": "as §1"}, "[17]": {"biological_target": "Gal6S(b1-4)Glc6S", "method_in_brief": "as §1"}, "[18]": {"biological_target": "Gal6S(b1-4)GlcNAc", "method_in_brief": "as §1"}, "[19]": {"biological_target": "Gal6S(b1-4)GlcNAc6S", "method_in_brief": "as §1"}, "[20]": {"biological_target": "GalNAc(a1-3)Gal", "method_in_brief": "as §1"}, "[21]": {"biological_target": "GalNAc(a1-3)GalNAc", "method_in_brief": "as §1"}, "[22]": {"biological_target": "GalNAc(a1-3)GalNAc(b1-3)Gal(a1-4)Gal(b1-4)Glc", "method_in_brief": "as §1"}, "[23]": {"biological_target": "GalNAc(a1-3)GalNAc(b1-3)Gal(a1-4)Gal(b1-4)GlcNAc", "method_in_brief": "as §1"}, "[24]": {"biological_target": "GalNAc(b1-3)Gal", "method_in_brief": "as §1"}, "[25]": {"biological_target": "GalNAc(b1-3)Gal(a1-4)Gal(b1-4)GlcNAc", "method_in_brief": "as §1"}, "[26]": {"biological_target": "GalNAc(b1-3)Gal(a1-4)Gal(b1-4)GlcNAc(b1-3)Gal(b1-4)Glc", "method_in_brief": "as §1"}, "[27]": {"biological_target": "GalNAc(b1-3)Gal(a1-6)Gal(b1-4)Glc", "method_in_brief": "as §1"}, "[28]": {"biological_target": "GalNAc(b1-3)GalNAc", "method_in_brief": "as §1"}, "[29]": {"biological_target": "GalNAc(b1-3)GlcNAc", "method_in_brief": "as §1"}, "[30]": {"biological_target": "GalNAc(b1-4)Gal(b1-4)Glc", "method_in_brief": "as §1"}}, "note": "The other results are listed elsewhere or left out.", "data": [{"binder": "CvGal2 (Crassostrea virginica) (protein) MGSSHHHHHHSSGLVPRGSHMRIREAGKRKDTTKVYQIPDGLFPGQQVMLRGRVPWGSKSFSINFSATPRMGEGDILFHLNPRPSEGVCIRNALLNGSWGAEEKWQPYFPFDDGRSFSVKIEVTNDAFRTFVNGRPFVDFLHRTDFRAGKYLTLREGAEYYDVIFQSKPNIPLTTAIHNGMRIGKTIRIRGMCTAQDGFAINFNDNRNNIYFHFNARPAQRTVVRNSYFGSWGNEETAISKEFPFYPFLYFYASFVCMEDKFAVYVNDEHFIDFAHRGNPNNISVLQIKGSVNVLDTECLEPMGEDAMTEVDSGLENGDLFVLNGLMTERGKTFAVNFLNGFTENDDIALHFNPRKSTGEVVLNSRYGGAWQSEEKVALPGVFWSNRPLQVKVETKRNKFKIYVNGVDLAKYKIRGNVEDVHAVQVKGDVFLLETLLLKRLMKPVWERLTGGIRPGTWVTLQGTPKKNWQQFVVNFALDDTLDGDIAFHFNVRRGARQVVRNHRQSGAWGREETVTPFFAFDSEATFEIVFFVKEEKFLIYFNGKLFFEFVHRVPVERITHIYMDGDCNFYEPEVVI", "values": [{"measurement": "glycan array binding signal (z-score)", "setting": "[1]", "value": -0.325}, {"measurement": "glycan array binding signal (z-score)", "setting": "[2]", "value": 0.033}, {"measurement": "glycan array binding signal (z-score)", "setting": "[3]", "value": 0.689}, {"measurement": "glycan array binding signal (z-score)", "setting": "[4]", "value": -0.322}, {"measurement": "glycan array binding signal (z-score)", "setting": "[5]", "value": -0.314}, {"measurement": "glycan array binding signal (z-score)", "setting": "[6]", "value": -0.323}, {"measurement": "glycan array binding signal (z-score)", "setting": "[7]", "value": -0.282}, {"measurement": "glycan array binding signal (z-score)", "setting": "[8]", "value": -0.332}, {"measurement": "glycan array binding signal (z-score)", "setting": "[9]", "value": -0.322}, {"measurement": "glycan array binding signal (z-score)", "setting": "[10]", "value": -0.319}, {"measurement": "glycan array binding signal (z-score)", "setting": "[11]", "value": -0.335}, {"measurement": "glycan array binding signal (z-score)", "setting": "[12]", "value": -0.323}, {"measurement": "glycan array binding signal (z-score)", "setting": "[13]", "value": -0.347}, {"measurement": "glycan array binding signal (z-score)", "setting": "[14]", "value": -0.329}, {"measurement": "glycan array binding signal (z-score)", "setting": "[15]", "value": -0.334}, {"measurement": "glycan array binding signal (z-score)", "setting": "[16]", "value": -0.331}, {"measurement": "glycan array binding signal (z-score)", "setting": "[17]", "value": -0.333}, {"measurement": "glycan array binding signal (z-score)", "setting": "[18]", "value": -0.312}, {"measurement": "glycan array binding signal (z-score)", "setting": "[19]", "value": -0.34}, {"measurement": "glycan array binding signal (z-score)", "setting": "[20]", "value": -0.134}, {"measurement": "glycan array binding signal (z-score)", "setting": "[21]", "value": -0.164}, {"measurement": "glycan array binding signal (z-score)", "setting": "[22]", "value": 0.523}, {"measurement": "glycan array binding signal (z-score)", "setting": "[23]", "value": 1.83}, {"measurement": "glycan array binding signal (z-score)", "setting": "[24]", "value": 0.085}, {"measurement": "glycan array binding signal (z-score)", "setting": "[25]", "value": -0.28}, {"measurement": "glycan array binding signal (z-score)", "setting": "[26]", "value": -0.074}, {"measurement": "glycan array binding signal (z-score)", "setting": "[27]", "value": -0.262}, {"measurement": "glycan array binding signal (z-score)", "setting": "[28]", "value": -0.341}, {"measurement": "glycan array binding signal (z-score)", "setting": "[29]", "value": 0.006}, {"measurement": "glycan array binding signal (z-score)", "setting": "[30]", "value": -0.331}]}]}
